Measurements as given in patent publication US20220073613A1, “ACTIVATABLE MASKED ANTI-CTLA4 BINDING PROTEINS” (Xilio Development, Inc., priority 2018, published 2022).

Columns and labels:
[1] = tested on: murine tumor, tissue, and plasma conditioned media; test: Ex vivo cleavage in murine tumor, tissue, and plasma, CTLA4 ELISA; assay type: in vitro ADME
Protocol: In another study, ex vivo cleavage in murine tumor, tissue, and plasma was assessed using a CTLA4 ELISA assay. This included the following murine models: C57/B16 (N=9), MC38 in wild type mice (N=9), MC38 in hCTLA4 mice (N=5), MB49 in wild type mice (N=6), MCA205 in wild type mice (N=4), and B16 in wild type mice (N=4). Cleavage in tumors, spleen, liver, kidney, and plasma was assessed. Plasma samples were pooled. Frequency of cleavage and the percentage of the molecule cleaved (median) were calculated.

[2] = tested on: human tumor tissue and normal tissue adjacent to tumor tissue (NAT); test: Anti-CTLA4 ELISA cleavage analysis with human tumor tissue and NAT (CHTN); assay type: in vitro ADME
Protocol: Anti-CTLA4 ELISA analyses were performed using human tumor tissue and normal tissue adjacent to tumor tissue (NAT) obtained from the Cooperative Human Tissue Network (CHTN). The antibodies tested include Antibody 2-14, Antibody 2-16, and Antibody 1334. […] The percentage of molecule cleaved by the tumor is slightly higher for Antibody 2-16 (26%) than Antibody 2-14 (22%). The overall percentage of molecule cleaved by the NAT is higher for Antibody 2-14 (24%) than Antibody 2-16 (7%).

[3] = In vivo cleavage in plasma of healthy cynomolgus monkeys, CE and MS
Protocol: In another study, in vivo cleavage was assessed in the plasma of healthy cynomolgus monkeys at 1 hour, 1 day, and 7 days after administration. Cleavage was identified by capillary electrophoresis (CE) and by mass spectrometry (MS). The abundance of cleavage products at expected cleavage site within Antibody 2-14 (VPLS**LY) was calculated. Cleavage at another site (VPLSLY**SGG) was also calculated for comparison. The abundance of cleavage for Antibody 2-16 was also calculated.

[4] = Pharmacokinetics in cynomolgus monkeys; assay type: in vivo; conditions: 10 mg/kg intravenous dose
[5] = tested on: healthy monkey (cynomolgus) tissues and plasma; test: Ex vivo cleavage in healthy monkey tissues and plasma, CTLA4 ELISA; assay type: in vitro ADME
Protocol: In another study, ex vivo cleavage of healthy monkey (cynomolgus) tissues (N=2) and plasma (N=3) was assessed using a CTLA4 ELISA assay. Tissues tested included kidney, spleen, liver, bladder, skin, colon, and lung.

B1: Antibody 2-15: masked Antibody 2-6: mask CPGKGLPSC, non-cleavable peptide GSGGSG; SEQ ID NO: 423 and 421; negative control (protein)
light: ACPGKGLPSCGGGSSGGSGGSGGSGSGGEIVLTQSPDFQSVTPKEKVTITCSANSALSYMYWYQQKPDQSPKLWVHGTSNLASGVPSRFSGSGSGTDFTLTINSLEAEDAATYYCHHWSNTQWTFGGGTKVEIKRTVAAPSVFIFPPSDEQLKSGTASVVCLLNNFYPREAKVQWKVDNALQSGNSQESVTEQDSKDSTYSLSSTLTLSKADYEKHKVYACEVTHQGLSSPVTKSFNRGEC
heavy: QVQLVQSGAEVKKPGSSVKVSCKASGYTFTNYFMNWVRQAPGQGLEWMGRVDPEQGRADYAEKFKKRVTITADKSTSTAYMELSSLRSEDTAVYYCARRAMDNYGFAYWGQGTLVTVSS[human IgG1 constant region with changes left out here]
[1]; B16-wt, Kidney (n = 4)
  Percentage (%) cleaved molecule: 3%
[1]; B16-wt, Liver (n = 4)
  Percentage (%) cleaved molecule: 0%
[1]; B16-wt, Plasma (n = 1)
  Percentage (%) cleaved molecule: 0%
[1]; B16-wt, Spleen (n = 4)
  Percentage (%) cleaved molecule: 0%
[1]; B16-wt, Tumor (n = 4)
  Percentage (%) cleaved molecule: 0%
[1]; C57/B16-wt, Kidney (n = 9)
  Percentage (%) cleaved molecule: 4%
[1]; C57/B16-wt, Liver (n = 9)
  Percentage (%) cleaved molecule: 2%
[1]; C57/B16-wt, Plasma (n = 2)
  Percentage (%) cleaved molecule: 3%
[1]; C57/B16-wt, Spleen (n = 9)
  Percentage (%) cleaved molecule: 2%
[1]; MB49-wt, Kidney (n = 6)
  Percentage (%) cleaved molecule: 2%
[1]; MB49-wt, Liver (n = 6)
  Percentage (%) cleaved molecule: 6%
[1]; MB49-wt, Spleen (n = 6)
  Percentage (%) cleaved molecule: 0%
[1]; MB49-wt, Tumor (n = 6)
  Percentage (%) cleaved molecule: 5%
[1]; MC38-hCTLA4, Kidney (n = 5)
  Percentage (%) cleaved molecule: 4%
[1]; MC38-hCTLA4, Liver (n = 5)
  Percentage (%) cleaved molecule: 0%
[1]; MC38-hCTLA4, Plasma (n = 1)
  Percentage (%) cleaved molecule: 0%
[1]; MC38-hCTLA4, Spleen (n = 5)
  Percentage (%) cleaved molecule: 0%
[1]; MC38-hCTLA4, Tumor (n = 5)
  Percentage (%) cleaved molecule: 0%
[1]; MC38-wt, Plasma (n = 1)
  Percentage (%) cleaved molecule: 0%
[1]; MCA205-wt, Kidney (n = 4)
  Percentage (%) cleaved molecule: 4%
[1]; MCA205-wt, Liver (n = 4)
  Percentage (%) cleaved molecule: 2%
[1]; MCA205-wt, Spleen (n = 4)
  Percentage (%) cleaved molecule: 12%
[1]; MCA205-wt, Tumor (n = 4)
  Percentage (%) cleaved molecule: 2%

B2: Antibody 2-16: masked Antibody 2-6: mask CPFPALELC, cleavable peptide DSGGFMLT; SEQ ID NO: 422 and 421 (protein)
light: ACPFPALELCSSGGSGPDSGGFMLTSGGEIVLTQSPDFQSVTPKEKVTITCSANSALSYMYWYQQKPDQSPKLWVHGTSNLASGVPSRFSGSGSGTDFTLTINSLEAEDAATYYCHHWSNTQWTFGGGTKVEIKRTVAAPSVFIFPPSDEQLKSGTASVVCLLNNFYPREAKVQWKVDNALQSGNSQESVTEQDSKDSTYSLSSTLTLSKADYEKHKVYACEVTHQGLSSPVTKSFNRGEC
heavy: QVQLVQSGAEVKKPGSSVKVSCKASGYTFTNYFMNWVRQAPGQGLEWMGRVDPEQGRADYAEKFKKRVTITADKSTSTAYMELSSLRSEDTAVYYCARRAMDNYGFAYWGQGTLVTVSS[human IgG1 constant region with changes left out here]
[2]; Bladder, NAT
  Frequency of cleavage: 0/3
  Percent (%) of cleavage: 0%
[2]; Bladder, Tumor
  Frequency of cleavage: 0/5
  Percent (%) of cleavage: 0%
[2]; Breast, NAT
  Frequency of cleavage: 1/4
  Percent (%) of cleavage: 5%
[2]; Breast, Tumor
  Frequency of cleavage: 1/4
[2]; Colon, NAT
  Frequency of cleavage: 3/8
  Percent (%) of cleavage: 3%
[2]; Colon, Tumor
  Frequency of cleavage: 5/7
  Percent (%) of cleavage: 50%
[2]; Liver, NAT
  Frequency of cleavage: 1/5
  Percent (%) of cleavage: 71%
[2]; Liver, Tumor
  Frequency of cleavage: 1/6
  Percent (%) of cleavage: 2%
[2]; Lung, NAT
  Frequency of cleavage: 1/6
  Percent (%) of cleavage: 2%
[2]; Lung, Tumor
  Frequency of cleavage: 1/7
  Percent (%) of cleavage: 21%
[2]; Lymph node, Tumor
  Frequency of cleavage: 0/1
  Percent (%) of cleavage: 0%
[2]; Melanoma, NAT
  Frequency of cleavage: 1/1
  Percent (%) of cleavage: 9%
[2]; Melanoma, Tumor
  Frequency of cleavage: 1/3
  Percent (%) of cleavage: 1%
[2]; Ovary, NAT
  Frequency of cleavage: 0/1
  Percent (%) of cleavage: 0%
[2]; Ovary, Tumor
  Frequency of cleavage: 2/9
  Percent (%) of cleavage: 5%
[2]; Renal cell, NAT
  Frequency of cleavage: 9/25
  Percent (%) of cleavage: 2%
[2]; Renal cell, Tumor
  Frequency of cleavage: 4/26
  Percent (%) of cleavage: 26%
[2]; Total, NAT
  Frequency of cleavage, as percent: 30%
  Percent (%) of cleavage: 7%
[2]; Total, NAT (samples cleaved/samples)
  Frequency of cleavage: 16/53
[2]; Total, Tumor
  Frequency of cleavage, as percent: 22%
  Percent (%) of cleavage: 26%
[2]; Total, Tumor (samples cleaved/samples)
  Frequency of cleavage: 15/68
[3]
  cleavage using CE or MS: no cleavage was identified
[3]; 1 hour
  abundance of the intact (uncleaved) antibody: 100%
[3]; 24 hours
  abundance of the intact (uncleaved) antibody: 100%
[3]; 72 hours
  abundance of the intact (uncleaved) antibody: 100%
[4]
  pharmacokinetics (level of antibody in plasma over 14 days): favorable pharmacokinetics
[5]; cyno lung
  percentage of cleavage: 30%
[5]; cyno plasma
  percentage of cleavage: absence of cleavage detected
[5]; cyno spleen
  percentage of cleavage: 15%
[1]; B16-wt, Kidney (n = 4)
  Percentage (%) cleaved molecule: 2%
[1]; B16-wt, Liver (n = 4)
  Percentage (%) cleaved molecule: 1%
[1]; B16-wt, Plasma (n = 1)
  Percentage (%) cleaved molecule: 0%
[1]; B16-wt, Spleen (n = 4)
  Percentage (%) cleaved molecule: 1%
[1]; B16-wt, Tumor (n = 4)
  Percentage (%) cleaved molecule: 0%
[1]; C57/B16-wt, Kidney (n = 9)
  Percentage (%) cleaved molecule: 2%
[1]; C57/B16-wt, Liver (n = 9)
  Percentage (%) cleaved molecule: 2%
[1]; C57/B16-wt, Plasma (n = 2)
  Percentage (%) cleaved molecule: 19%
[1]; C57/B16-wt, Spleen (n = 9)
  Percentage (%) cleaved molecule: 3%
[1]; MB49-wt, Kidney (n = 6)
  Percentage (%) cleaved molecule: 5%
[1]; MB49-wt, Liver (n = 6)
  Percentage (%) cleaved molecule: 1%
[1]; MB49-wt, Plasma (n = 1)
  Percentage (%) cleaved molecule: 4%
[1]; MB49-wt, Spleen (n = 6)
  Percentage (%) cleaved molecule: 1%
[1]; MB49-wt, Tumor (n = 6)
  Percentage (%) cleaved molecule: 2%
[1]; MC38-hCTLA4, Kidney (n = 5)
  Percentage (%) cleaved molecule: 5%
[1]; MC38-hCTLA4, Liver (n = 5)
  Percentage (%) cleaved molecule: 2%
[1]; MC38-hCTLA4, Plasma (n = 1)
  Percentage (%) cleaved molecule: 0%
[1]; MC38-hCTLA4, Tumor (n = 5)
  Percentage (%) cleaved molecule: 7%
[1]; MC38-wt, Kidney (n = 9)
  Percentage (%) cleaved molecule: 3%
[1]; MC38-wt, Liver (n = 9)
  Percentage (%) cleaved molecule: 5%
[1]; MC38-wt, Plasma (n = 1)
  Percentage (%) cleaved molecule: 0%
[1]; MC38-wt, Spleen (n = 9)
  Percentage (%) cleaved molecule: 0%
[1]; MC38-wt, Tumor (n = 9)
  Percentage (%) cleaved molecule: 4%
[1]; MCA205-wt, Kidney (n = 4)
  Percentage (%) cleaved molecule: 0%
[1]; MCA205-wt, Liver (n = 4)
  Percentage (%) cleaved molecule: 0%
[1]; MCA205-wt, Plasma (n = 1)
  Percentage (%) cleaved molecule: 0%
[1]; MCA205-wt, Spleen (n = 4)
  Percentage (%) cleaved molecule: 2%
[1]; MCA205-wt, Tumor (n = 4)
  Percentage (%) cleaved molecule: 0%
[1]; kidney conditioned media of B16-wt
  Frequency of cleavage: 100%
[1]; kidney conditioned media of MB49-wt
  Frequency of cleavage: 17%
[1]; kidney conditioned media of MC38-hCTLA4
  Frequency of cleavage: 80%
[1]; kidney conditioned media of MC38-wt
  Frequency of cleavage: 67%
[1]; tumor conditioned media of MB49-wt
  Frequency of cleavage: 17%
[1]; tumor conditioned media of MC38-hCTLA4
  Frequency of cleavage: 40%
[1]; tumor conditioned media of MC38-wt
  Frequency of cleavage: 100%
